What all share (assay): split reporter; YFP-BiFc with full-length genes in transfected HEK293 cells; YFP-fluorescent cells counted by flow cytometry (FACS Canto II), 50,000 cells per sample; values of both tag orientations (YFP1/YFP2) combined
Test [1] addresses melanocortin 3 receptor (MC3R), human, full length, fused to a YFP fragment (human) (UniProt P41968).
Test [2] has as its target rat cholinergic receptor, muscarinic 3 (rCHRM3), fused to a YFP fragment (rat) (UniProt P08483).
The target of test [3] is G protein-coupled receptor 83 (GPR83) (mouse) (UniProt P30731).
Test [4] deals with ring finger protein 11 (RNF11), murine, full length, fused to a YFP fragment (mouse) (UniProt Q9QYK7).

Protein sequences, listed by entry. Tags and fused reporters are not part of them. Residues count along the entry.
UniProt P41968: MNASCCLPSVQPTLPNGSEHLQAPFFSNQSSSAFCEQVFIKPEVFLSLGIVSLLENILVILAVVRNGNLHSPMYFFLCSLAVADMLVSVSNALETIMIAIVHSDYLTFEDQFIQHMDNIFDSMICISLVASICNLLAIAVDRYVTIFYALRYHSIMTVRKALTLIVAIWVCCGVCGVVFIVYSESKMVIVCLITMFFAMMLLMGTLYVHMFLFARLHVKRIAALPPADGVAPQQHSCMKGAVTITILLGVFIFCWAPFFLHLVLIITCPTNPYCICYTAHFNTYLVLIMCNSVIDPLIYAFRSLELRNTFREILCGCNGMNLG
UniProt P08483: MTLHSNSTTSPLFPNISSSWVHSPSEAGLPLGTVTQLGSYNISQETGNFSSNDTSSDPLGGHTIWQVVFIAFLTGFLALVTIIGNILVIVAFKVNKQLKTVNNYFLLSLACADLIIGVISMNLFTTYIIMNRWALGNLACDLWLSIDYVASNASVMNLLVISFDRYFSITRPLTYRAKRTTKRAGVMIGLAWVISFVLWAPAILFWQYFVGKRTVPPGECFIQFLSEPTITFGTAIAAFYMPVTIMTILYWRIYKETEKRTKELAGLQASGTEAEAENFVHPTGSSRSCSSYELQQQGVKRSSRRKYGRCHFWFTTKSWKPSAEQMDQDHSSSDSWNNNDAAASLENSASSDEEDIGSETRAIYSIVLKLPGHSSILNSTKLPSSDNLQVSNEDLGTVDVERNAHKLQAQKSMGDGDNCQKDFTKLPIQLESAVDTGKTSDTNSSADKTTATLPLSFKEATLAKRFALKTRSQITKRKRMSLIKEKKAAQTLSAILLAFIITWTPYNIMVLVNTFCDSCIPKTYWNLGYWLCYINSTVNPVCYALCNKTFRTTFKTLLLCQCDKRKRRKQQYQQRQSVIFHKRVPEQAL
UniProt P30731, residues 18-423: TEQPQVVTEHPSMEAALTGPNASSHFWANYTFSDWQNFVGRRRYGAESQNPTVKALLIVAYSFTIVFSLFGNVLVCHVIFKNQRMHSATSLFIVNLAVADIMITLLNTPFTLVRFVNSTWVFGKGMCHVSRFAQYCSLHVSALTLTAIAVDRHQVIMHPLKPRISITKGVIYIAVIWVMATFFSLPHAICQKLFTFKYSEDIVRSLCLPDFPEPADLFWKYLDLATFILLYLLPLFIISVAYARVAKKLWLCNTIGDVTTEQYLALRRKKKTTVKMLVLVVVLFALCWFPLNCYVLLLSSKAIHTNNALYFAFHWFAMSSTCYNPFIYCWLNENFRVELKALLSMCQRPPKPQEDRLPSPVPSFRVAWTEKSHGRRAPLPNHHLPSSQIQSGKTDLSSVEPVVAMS
UniProt Q92847: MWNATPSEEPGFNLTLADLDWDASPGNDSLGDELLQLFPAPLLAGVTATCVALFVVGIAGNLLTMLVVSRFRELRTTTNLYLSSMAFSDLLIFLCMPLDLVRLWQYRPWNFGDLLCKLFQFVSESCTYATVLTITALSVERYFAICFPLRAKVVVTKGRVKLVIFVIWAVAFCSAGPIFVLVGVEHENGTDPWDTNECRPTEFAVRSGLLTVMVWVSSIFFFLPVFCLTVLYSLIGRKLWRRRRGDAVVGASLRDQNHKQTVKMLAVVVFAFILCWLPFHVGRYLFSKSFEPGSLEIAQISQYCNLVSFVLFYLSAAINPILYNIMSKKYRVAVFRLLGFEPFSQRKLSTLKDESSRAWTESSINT

No constants are given. Whether binding was seen depends on the method and setting. Binding seen in cells or lysates may run through a third protein. Some entries that bind do so weakly or less than the wild type. For some assays here: Tags and fused reporters may be left off the sequences shown.

As to “growth hormone secretagogues receptor (GHSR), human, full length, fused to a YFP fragment (from UniProt Q92847 1-366)”, the values for the binding result in test [1] and in test [2] were “binds” and “no binding”, respectively.

B1: ring finger protein 11 (RNF11), murine, full length, fused to a YFP fragment (protein, UniProt Q9QYK7 1-154)
chain: MGNCLKSPTSDDISLLHESQSDRASFGEGTEPDQEPPPPYQEQVPVPIYHPTPSQTRLATQLTEEEQIRIAQRIGLIQHLPKGVYDPGRDGSEKKIRECVICMMDFVYGDPIRFLPCMHIYHLDCIDDWLMRSFTCPSCMEPVDAALLSSYETN
For the molecule B1, the binding result is “binds” in test [3], “no binding” in test [2] and “binds” in test [4].
